{"source": "paper PMC4336329", "about": "(PLoS ONE, 2015)", "note": "Out of some 310,000 compounds screened, about 2,200 (0.71%) showed an effect of 50% or more. Effects have a minus sign here. Some of the results follow."}
{"molecular_target": "human ether-à-go-go-related gene (hERG) potassium channel (human, UniProt Q12809)", "sequence (Q12809 whole entry, looked up)": "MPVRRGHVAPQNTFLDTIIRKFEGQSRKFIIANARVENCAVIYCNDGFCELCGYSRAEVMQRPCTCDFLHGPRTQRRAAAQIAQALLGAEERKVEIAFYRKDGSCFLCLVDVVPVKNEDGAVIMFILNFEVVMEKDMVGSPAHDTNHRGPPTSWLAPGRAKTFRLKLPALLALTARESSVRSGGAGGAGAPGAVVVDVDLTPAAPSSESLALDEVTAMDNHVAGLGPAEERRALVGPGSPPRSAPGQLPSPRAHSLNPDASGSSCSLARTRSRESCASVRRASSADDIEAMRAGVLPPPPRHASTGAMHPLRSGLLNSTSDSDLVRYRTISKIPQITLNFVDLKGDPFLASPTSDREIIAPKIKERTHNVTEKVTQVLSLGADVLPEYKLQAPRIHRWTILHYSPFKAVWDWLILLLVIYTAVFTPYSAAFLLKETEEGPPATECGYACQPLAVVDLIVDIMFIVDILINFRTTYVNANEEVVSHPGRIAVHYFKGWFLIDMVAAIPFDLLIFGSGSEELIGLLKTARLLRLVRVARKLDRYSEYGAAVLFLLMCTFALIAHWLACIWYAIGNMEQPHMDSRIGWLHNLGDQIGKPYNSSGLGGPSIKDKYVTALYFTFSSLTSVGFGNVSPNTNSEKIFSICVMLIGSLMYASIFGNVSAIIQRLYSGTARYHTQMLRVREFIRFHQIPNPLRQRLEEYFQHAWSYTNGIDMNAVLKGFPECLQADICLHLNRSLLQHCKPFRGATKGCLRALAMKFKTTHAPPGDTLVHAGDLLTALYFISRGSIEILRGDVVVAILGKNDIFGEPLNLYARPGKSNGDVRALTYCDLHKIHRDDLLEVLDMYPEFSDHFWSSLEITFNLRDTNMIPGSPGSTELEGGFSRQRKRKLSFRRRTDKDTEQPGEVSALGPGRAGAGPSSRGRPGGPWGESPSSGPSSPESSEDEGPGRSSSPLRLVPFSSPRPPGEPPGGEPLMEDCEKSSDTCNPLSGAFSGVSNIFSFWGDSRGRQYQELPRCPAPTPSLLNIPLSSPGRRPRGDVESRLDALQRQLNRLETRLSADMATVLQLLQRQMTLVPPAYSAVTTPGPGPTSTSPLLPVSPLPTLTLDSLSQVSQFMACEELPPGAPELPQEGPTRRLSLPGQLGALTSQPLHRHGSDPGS", "experiment": "primary screen, population patch clamp on CHO cells stably expressing hERG", "units": {"hERG current change (%, negative = inhibition) at 1uM": "%"}}
{"smiles": "Cc1cccnc1NC(=O)CCC(=O)c1cccs1", "hERG current change (%, negative = inhibition) at 1uM": 9.21}
{"smiles": "Cc1ccccc1N(C)C(=O)c1coc(=O)c2ccccc12", "hERG current change (%, negative = inhibition) at 1uM": 13.3}
{"smiles": "COc1ccc(CCC(=O)N2CCCC(Nc3ccc(C)c(C)c3)C2)cc1OC", "note": "(stereo not shown)", "hERG current change (%, negative = inhibition) at 1uM": 8.21}
{"smiles": "O=C(CNC(=O)c1ccccc1Br)N/N=C/c1cc(Br)ccc1O", "hERG current change (%, negative = inhibition) at 1uM": 18.4}
{"smiles": "COc1ccc(CNC(=O)CN2C(=O)NC(Cc3ccccc3)(c3ccccc3)C2=O)cc1OC", "note": "(stereo not shown)", "hERG current change (%, negative = inhibition) at 1uM": 6.6}
{"smiles": "COc1ccc(C(=O)Nc2nnc(SCC(=O)NCc3ccco3)s2)c(OC)c1", "hERG current change (%, negative = inhibition) at 1uM": 8.14}
{"smiles": "CCCCN(C(=O)C1CCCO1)c1c(N)n(CC(C)C)c(=O)[nH]c1=O", "note": "(stereo not shown)", "hERG current change (%, negative = inhibition) at 1uM": 3.99}
{"smiles": "COc1ccccc1CN1C[C@@H]2C[C@@H](c3[nH]c4ccc(C)cc4c3C)N3CCC[C@@]23C1=O", "hERG current change (%, negative = inhibition) at 1uM": -1.1}
{"smiles": "COc1ccc(CN2C(=O)c3ccccc3C2OC)cc1", "note": "(stereo not shown)", "hERG current change (%, negative = inhibition) at 1uM": 9.37}
{"smiles": "Cc1nn(CCCC(=O)Nc2ccccn2)c(C)c1[N+](=O)[O-]", "hERG current change (%, negative = inhibition) at 1uM": 13.2}
{"smiles": "COc1ccc(Cl)cc1C(=O)Nc1ccc(N(C)C(C)=O)cc1", "hERG current change (%, negative = inhibition) at 1uM": 8.38}
{"smiles": "CNc1ccc(S(=O)(=O)NCC(=O)OCC(=O)Nc2cccc(Cl)c2Cl)cc1[N+](=O)[O-]", "hERG current change (%, negative = inhibition) at 1uM": 5.7}
{"smiles": "COc1ccc(C(=O)NCc2nnc(SCC(=O)N3CCc4ccccc43)n2CCc2ccccc2)cc1", "hERG current change (%, negative = inhibition) at 1uM": 7.17}
{"smiles": "COc1ccc(N(CC(=O)Nc2ccccc2C(=O)N2CCOCC2)S(=O)(=O)c2ccc(F)cc2)cc1", "hERG current change (%, negative = inhibition) at 1uM": -4.22}
{"smiles": "Cc1cccn2c(CN3CCCN(C=O)CC3)c(C(=O)N(C)CCc3ccccc3)nc12", "hERG current change (%, negative = inhibition) at 1uM": 15.7}
{"smiles": "CCOCCCNC(=O)C(c1ccc(OC)cc1)N(Cc1ccc2c(c1)OCO2)C(=O)c1ccccn1", "note": "(stereo not shown)", "hERG current change (%, negative = inhibition) at 1uM": 9.53}
{"smiles": "CC(=O)Oc1ccc(C2OC(=O)c3ccccc3N2C(C)=O)cc1", "note": "(stereo not shown)", "hERG current change (%, negative = inhibition) at 1uM": -3.42}
{"smiles": "O=C(Oc1ccc(O)cc1)C12CC3CC(CC(C3)C1)C2", "hERG current change (%, negative = inhibition) at 1uM": 8.7}
{"smiles": "O=C(CN(CCc1ccccc1)C(=O)CN1C(=O)COc2ccccc21)NCc1ccco1", "hERG current change (%, negative = inhibition) at 1uM": -10.8}
{"smiles": "CCOc1cc(/C=N/NC(N)=O)ccc1OC(=O)c1ccc(C)cc1", "hERG current change (%, negative = inhibition) at 1uM": 8.88}
{"smiles": "COc1ccc(-c2cc(C(=O)Nc3cccc(Cl)c3)no2)cc1", "hERG current change (%, negative = inhibition) at 1uM": 20.5}
{"smiles": "Cc1c(S(=O)(=O)N2CCN(c3ccc(F)cc3)CC2)c(=O)n(C)c(=O)n1C", "hERG current change (%, negative = inhibition) at 1uM": 4.2}
{"smiles": "CC(C)(C)NC(=O)CN(C(=O)CCC(=O)Nc1nccs1)c1ccc(F)c(Cl)c1", "hERG current change (%, negative = inhibition) at 1uM": 0.866}
{"smiles": "Cc1cc(C(=O)NC2CCCCC2)c(C)o1", "hERG current change (%, negative = inhibition) at 1uM": 3.71}
{"smiles": "O=C(CCN1C(=O)C2CCCCC2C1=O)Nc1ccc(Br)cc1F", "note": "(stereo not shown)", "hERG current change (%, negative = inhibition) at 1uM": 13.1}
{"smiles": "Cc1nn(CC(=O)NC(C)CCc2ccccc2)c(=O)c2nn(-c3ccccc3)c(C)c12", "note": "(stereo not shown)", "hERG current change (%, negative = inhibition) at 1uM": 20.7}
{"smiles": "O=C(c1ccccc1)[C@H]1[C@H](c2ccccc2)[C@@]2(N=C(c3ccccc3)OC2=O)C2c3ccccc3C=NN21", "note": "(stereo partly shown)", "hERG current change (%, negative = inhibition) at 1uM": 15.7}
{"smiles": "COc1cc(Cl)c(C)cc1NC(=O)CSc1nnc(CCC(=O)O)c(=O)[nH]1", "hERG current change (%, negative = inhibition) at 1uM": 13.2}
{"smiles": "CN=C1CC(SC)=C1c1ccc(C)cc1", "hERG current change (%, negative = inhibition) at 1uM": 9.36}
{"smiles": "Cc1cccc(C)c1Nc1ncnc2ccccc12.Cl", "hERG current change (%, negative = inhibition) at 1uM": 20}
{"smiles": "Brc1cc2c(cc1C1Nc3ccccc3C3C=CCC31)OCO2", "note": "(stereo not shown)", "hERG current change (%, negative = inhibition) at 1uM": 12.6}
{"smiles": "Cc1nc(SCC(=O)c2cccs2)c2oc3ccccc3c2n1", "hERG current change (%, negative = inhibition) at 1uM": 13.3}
{"smiles": "COc1ccc(CC(NC(C)=O)C(=O)NC2CCN(c3nnnn3-c3ccccc3)CC2)cc1OC", "note": "(stereo not shown)", "hERG current change (%, negative = inhibition) at 1uM": 1.05}
{"smiles": "COc1cc(SSc2cc(OC)cc([N+](=O)[O-])c2N)c(N)c([N+](=O)[O-])c1", "hERG current change (%, negative = inhibition) at 1uM": 2.25}
{"smiles": "CCC(C)NC(=O)CSc1ccc(Cl)cc1", "note": "(stereo not shown)", "hERG current change (%, negative = inhibition) at 1uM": 16.8}
{"smiles": "Cc1ccc(S(=O)(=O)Cn2nnnc2CN2CCN(Cc3ccc4c(c3)OCO4)CC2)cc1", "hERG current change (%, negative = inhibition) at 1uM": -8.32}
{"smiles": "Cn1c(CC(=O)Nc2ccccc2F)nnc1SCC(=O)NC1=NCCS1", "hERG current change (%, negative = inhibition) at 1uM": 23.4}
{"smiles": "CC(OC(=O)Cc1c[nH]c2ccccc12)C(=O)Nc1ccc(S(N)(=O)=O)cc1", "note": "(stereo not shown)", "hERG current change (%, negative = inhibition) at 1uM": 5.96}
{"smiles": "Cc1ccc(Nc2nc(Cl)c(C=O)s2)cc1Cl", "hERG current change (%, negative = inhibition) at 1uM": 11}
{"smiles": "CC(C)N(C(=O)c1ccccc1-c1ccccc1)C(C)C", "hERG current change (%, negative = inhibition) at 1uM": 4.93}
{"smiles": "CC(C(=O)Nc1ccc(C(=O)O)c(O)c1)N1C(=O)/C(=C\\c2ccco2)SC1=S", "note": "(stereo not shown)", "hERG current change (%, negative = inhibition) at 1uM": 15.2}
{"smiles": "Cc1cc(NC(=O)Cn2c(=O)n(Cc3ccccc3)c(=O)c3ccccc32)no1", "hERG current change (%, negative = inhibition) at 1uM": 10.1}
{"smiles": "O=C(Cn1nc(-c2cccc(Cl)c2)ccc1=O)NCC1COCCO1", "note": "(stereo not shown)", "hERG current change (%, negative = inhibition) at 1uM": 6.67}
